From publication PMC7819943, “Rice protein-binding microarrays: a tool to detect cis-acting elements near promoter regions in rice” come the findings set out here.

This is one part of the list.

The assay has as its target T1, OsWOX13 (Oryza sativa, UniProt Q5QMM3 1-267).
T1 sequence: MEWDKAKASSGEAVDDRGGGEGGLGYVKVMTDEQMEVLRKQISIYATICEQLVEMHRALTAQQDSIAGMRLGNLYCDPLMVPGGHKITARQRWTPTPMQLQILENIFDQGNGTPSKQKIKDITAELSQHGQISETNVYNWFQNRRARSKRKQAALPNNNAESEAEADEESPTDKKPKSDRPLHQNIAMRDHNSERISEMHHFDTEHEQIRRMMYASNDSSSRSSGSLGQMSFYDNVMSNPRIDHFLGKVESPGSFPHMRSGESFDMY
Nature of the assay: protein-binding microarray (RPBM); PBS, 2% BSA, 51.3 ng/ul salmon testes DNA, 50 uM zinc acetate, 200 nM TF, 25 C, 1 h; high values mean tight binding. As to conditions: protein: recombinant; tags: N-terminal polyhistidine and DsRed monomer fusion (pET32a); label: CyDye5-dUTP incorporated in the synthesized complementary strand; 3' TTTTT single-stranded linker to array surface; dsDNA, one strand shown. The gist of the method: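 For the binding signal, per-feature fluorescence intensity was read in arbitrary units on an Axon 4000B scanner. Before scanning, a 2% BSA-blocked custom Agilent array made double-stranded with Cy5-dUTP was washed after 1 h at 25 °C with 200 nM protein and 50 µM zinc acetate. The proteins were Ni–NTA-purified transcription factors with N-terminal polyhistidine and DsRed fusions, expressed in E. coli BL21-CodonPlus.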
In the case of “AGGTTTGATTAGTTAGAGACAGGAATCTGCTAACTTCGATCGGAGTCACCTAGTGCAG”, the binding signal is 31600 fluorescence intensity (a.u.). Consider “AGCAATGTTGATTGTTTGAGACTGAGTTGAGATGTGGTATCGGAGTCACCTAGTGCAG”, for which the binding signal was 22300 fluorescence intensity (a.u.). Turning to “TATTAGATTGGCTATAGATGAATTGGAGCTAGTAGTTGGCCGGAGTCACCTAGTGCAG”, the binding signal is 46700 fluorescence intensity (a.u.).

For “TTACTACTCCGAATCAATCAATTACCCAGGAATTCAGGAACGGAGTCACCTAGTGCAG”, the binding signal is 18800 fluorescence intensity (a.u.). In the case of “AAAACTAATTGTACAGTTTGTATGGAAAAGCATGGGACGACGGAGTCACCTAGTGCAG”, the binding signal was 9770 fluorescence intensity (a.u.). The same measure for “TTGTCCAAAATGTCAATTATTATAAAACCGGAGAGAGTACCGGAGTCACCTAGTGCAG”: 10100 fluorescence intensity (a.u.); for “GAAATTTTAATTCTGAGAGAAAATTGAGCTGTCCGAAACCCGGAGTCACCTAGTGCAG”: 3660 fluorescence intensity (a.u.). With “TGATTTGGCTGATTAGATGCAATTTAGTCCTGCCACTGTGCGGAGTCACCTAGTGCAG” the figure was 16900 fluorescence intensity (a.u.).

“ATAAATAATCATGCATATATTTCTCTATAGATAGAACCTTCGGAGTCACCTAGTGCAG”: the binding signal is 6160 fluorescence intensity (a.u.). With “GCGGTGGCGGCGGCGGAGGCGGAGGCGGAGGCGGTGTTGACGGAGTCACCTAGTGCAG” the figure was 3420 fluorescence intensity (a.u.); with “GTTAATCGAGAATTGTGACGTTACACGGATGCATGATTAGCGGAGTCACCTAGTGCAG”, 4410 fluorescence intensity (a.u.). As to “AGCCTAATTACGCCATGATTTGACAATGTGGTGCTACAGTCGGAGTCACCTAGTGCAG”, the binding signal is 58300 fluorescence intensity (a.u.). With “TGTTGTTAGATGATAAAACATGATTAATATTTTATGCGTGCGGAGTCACCTAGTGCAG” the figure was 3610 fluorescence intensity (a.u.).

Turning to “AATAAATCTATAATTTTATGATATTATGACTTAAATCTATCGGAGTCACCTAGTGCAG”, the binding signal is 4790 fluorescence intensity (a.u.). With “GGCTATAACATTAACTATAGATGATTTAGAGCCAGTGTCTCGGAGTCACCTAGTGCAG” the figure was 9850 fluorescence intensity (a.u.); with “TGTGATTGCAAGACGTTGCTATTAAGAATTTACATTCCTCCGGAGTCACCTAGTGCAG”, 35800 fluorescence intensity (a.u.); with “GTCCCAGTTCCACTTGATTTATAGTACCATTATAGCCTGACGGAGTCACCTAGTGCAG”, 3500 fluorescence intensity (a.u.).

As to “ACCACTGAAAGAATAATTAGCCGTAAATGCGAGCACCCGTCGGAGTCACCTAGTGCAG”, the binding signal was 5480 fluorescence intensity (a.u.).

Consider “TGGTGATTATTTTACGGGTTTCGTTGAATAGCTCTCTTTGCGGAGTCACCTAGTGCAG”, for which the binding signal is 31800 fluorescence intensity (a.u.). With “CGTGAGTGAAATTTTAATTACGTGTACATATAGGGGAGTACGGAGTCACCTAGTGCAG” the figure was 20500 fluorescence intensity (a.u.); with “ATATATATATATATATATATGTATCTATATATGTATATATCGGAGTCACCTAGTGCAG”, 5960 fluorescence intensity (a.u.); with “GCTCATTCAATTCCTCACTTGATCCATCCATCCATCTATCCGGAGTCACCTAGTGCAG”, 3580 fluorescence intensity (a.u.). In the case of “GTGTGATTTAGGCATAGGGCTGACCATGACCCTTTACGACCGGAGTCACCTAGTGCAG”, the binding signal is 7270 fluorescence intensity (a.u.). Regarding “TTGAATGGGATATGATTGATGGGACAAGTAGTATTTAGGACGGAGTCACCTAGTGCAG”, the binding signal is 40900 fluorescence intensity (a.u.). Consider “GATGTTGATTAGGATGTGACGTGCATACGTGTAGTAGGGTCGGAGTCACCTAGTGCAG”, for which the binding signal was 49400 fluorescence intensity (a.u.). Consider “ATACGTTGAATTTAAATTTGCATGTTTGTGAAGTGACGTACGGAGTCACCTAGTGCAG”, for which the binding signal was 5300 fluorescence intensity (a.u.).

Consider “TTTAATTATTTGATATTAGGTTATTCCTTACTATTCGCGTCGGAGTCACCTAGTGCAG”, for which the binding signal was 27400 fluorescence intensity (a.u.). With “TCTTCGTTGTCTCCCTCGCTATCACTGTCATATTCCCATCCGGAGTCACCTAGTGCAG” the figure was 3840 fluorescence intensity (a.u.); with “TGCTAATTTATTCATTAATCGTGCGAGTCTGCTAATCGGTCGGAGTCACCTAGTGCAG”, 40000 fluorescence intensity (a.u.); with “GCATATCTTAAAATTAATTACTCTGTTTGTTGGATGTAAGCGGAGTCACCTAGTGCAG”, 6100 fluorescence intensity (a.u.).

In the case of “GTTGACTATTAATACAATATTTTGCAGACTGGATACCTTGCGGAGTCACCTAGTGCAG”, the binding signal was 3340 fluorescence intensity (a.u.). The same measure for “TAAATGCAATGATTAAATTCTGGGAAAAGGCTGCCGAATACGGAGTCACCTAGTGCAG”: 3400 fluorescence intensity (a.u.); for “ACAGATAGATGCACAATTGCGTGACAGTCCATTGTATTCACGGAGTCACCTAGTGCAG”: 5420 fluorescence intensity (a.u.). The same measure for “GGGTGCCGCGGGCGGCTAGAGGGCGCCTCTGCGTGGGTGACGGAGTCACCTAGTGCAG”: 3530 fluorescence intensity (a.u.); for “CATATGACCAGTTTAACTGCCATCATGCAGACACACAGGACGGAGTCACCTAGTGCAG”: 3410 fluorescence intensity (a.u.); for “AATAGCTAAAACTTAATTAATCACGCACTGAAACGCGGCTCGGAGTCACCTAGTGCAG”: 4280 fluorescence intensity (a.u.). The same measure for “GTTACAATGTAATTACATGTAAGTTACAGTGTAGTTATTCCGGAGTCACCTAGTGCAG”: 10200 fluorescence intensity (a.u.); for “TTATATTAGATTTGTATAGCCTAGATATCTATTCTATCTGCGGAGTCACCTAGTGCAG”: 5860 fluorescence intensity (a.u.). As for “CCCGTAAATTTGCGAGCGGGCCATCCCGTATGGACCTTGCCGGAGTCACCTAGTGCAG”, the binding signal is 3780 fluorescence intensity (a.u.). The same measure for “GGATAACTTCTGATGATGAATTGTTTGTCTAATTTATCTCCGGAGTCACCTAGTGCAG”: 13000 fluorescence intensity (a.u.); for “ATTAATCATACGCTAATGACTCATCTTATTTTACGTATCTCGGAGTCACCTAGTGCAG”: 9100 fluorescence intensity (a.u.).

For “TTTGATCTAATTAGTTGAGTTTGTTGGGTTAATCACTTACCGGAGTCACCTAGTGCAG”, the binding signal was 28700 fluorescence intensity (a.u.).
